# Measurements published in PubChem BioAssay AID445 (National Center for Advancing Translational Sciences (NCATS), 2006).
# About 40 (0.04%) of roughly 110,000 compounds were called active. Inconclusive results, whose numbers are uncertain, are shown with a selection of clear calls. Calls come from the whole dose curve; as a rule, active = well fitted curve in the direction sought with a large enough effect in the signal ratio (not every such curve was filed as active); inconclusive = small, poorly fitted or top-dose-only effect, or a change in a side signal; inactive = flat fitted curve, though single readings scatter; the % refers to the signal ratio. Potencies of inconclusive entries are doubtful fits and often do not repeat.
# Experiment: IkB Signaling;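 for IkBa stabilization activation: 0% = basal untreated cells and 100% = reference inhibitor full response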
# Details: ABC-DLBCL IkBa-CBG/CBR dual luciferase ratio (green luciferase fused to IkBa over red control in OCI-Ly3 lymphoma cells), 4 h; IkBa stabilization activation: at 57.1 µM (top of the series), scaled: untreated 0%, proteasome inhibitor 100% unless noted
# Procedure, shortened: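 Curves were fitted separately to fusion (green), unfused (red) and ratio luminescence, then classed by r2, magnitude and activity. Cells: OCI-Ly3, 4 h compound plus doxycycline at 37C; 10 uM MG-132 defined full response.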
# Potency is the fitted concentration of half-maximal effect.
SMILES,IkBa stabilization activation,Potency
CCOC(=O)c1oc2ccc(S(=O)(=O)n3nc(-c4ccc(Br)cc4)cc3N)cc2c1C,inconclusive: -0.468% [signal inhibitor],–
Cc1nc(SCC(=O)Nc2cc(C)on2)c2c(=O)n(C)c(=O)n(C)c2n1,inactive: 0.472%,–
COc1ccccc1Nc1nn2c(=O)c3ccc(C(=O)N4CCCC(C)C4)cc3nc2s1 (stereo unspecified),–,inconclusive: 39.8 µM [signal inhibitor]
COc1ccccc1CNS(=O)(=O)c1ccc2c(c1)NC(=O)CC(=O)N2,inconclusive: 2.77% [signal inhibitor],–
Cc1ccc(-n2nc(C)c3c(C(=O)NCc4ccccc4)cc(C4CC4)nc32)cc1,inconclusive: -0.0516% [signal inhibitor],–
COc1ccc(C2CC(=O)N(Cc3cccc(F)c3)c3ccccc3S2)cc1 (stereo unspecified),inconclusive: 3.03% [signal inhibitor],–
COc1cc(/C=C(\C#N)c2nc3ccccc3[nH]2)ccc1OCc1cccc(C(F)(F)F)c1,inactive: -1.13%,–
CCCc1cnc2c(c1SCC(=O)Nc1ccc(C)c(Cl)c1)c(=O)n(C)c(=O)n2C,inconclusive: 2.3% [signal inhibitor],–
CCOc1ccccc1NC(=O)c1ccc(F)c(S(=O)(=O)NCc2ccc3c(c2)OCO3)c1,inconclusive: 1.49% [signal inhibitor],–
Cc1cccc(NC(=O)c2ccccc2Br)n1,–,"inconclusive: 0.251 µM [signal inhibitor, full curve]"
O=c1cc(-c2ccccc2)nc2nc(-c3ccccc3)[nH]n12,–,"inconclusive: 2.51 µM [signal inhibitor, partial curve]"
CCOc1ccccc1NC(=O)N1CCc2c(sc(C)c2CC)C1c1ccccc1 (stereo unspecified),inconclusive: -0.00915% [signal inhibitor],–
COc1ccc(-c2nn3c(-c4ccccc4C)nnc3c3ccccc23)cc1,inactive: 3.72%,–
O=S(=O)(c1ccccc1)N1CCC[C@@]2(CCN(Cc3nccs3)C2)C1,"inactive: 1.23% [at 11.4 µM, scaled: untreated 0%, proteasome inhibitor 100%]",–
Cc1ccc(N2CCN(S(=O)(=O)c3ccc(F)c(C)c3)CC2)c(C)c1,inconclusive: 3.71% [signal inhibitor],–
COc1ccccc1-c1nnc(SCC(=O)Nc2ccccc2)o1,inconclusive: 8% [signal inhibitor],–
c1ccc2c[n+](Cc3ccnc4ccccc34)ccc2c1,"inactive: -0.861% [at 11.4 µM, scaled: untreated 0%, proteasome inhibitor 100%]",–
Cc1ccc(N2C(=O)c3oc4ccccc4c(=O)c3C2c2cccc(O)c2)nc1 (stereo unspecified),inconclusive: -1.39% [signal inhibitor],–
Cc1ccc(C)c(NC(=O)CSc2nnc(CCCCCNC(=O)OC(C)(C)C)o2)c1,inconclusive: 1.17% [signal inhibitor],–
CCc1ccccc1N1CC(c2nc3ccccc3n2CCCCOc2ccccc2)CC1=O (stereo unspecified),inconclusive: -3.81% [signal inhibitor],–
CC(=O)c1ccc(N2CCN(S(=O)(=O)c3ccc4c(c3)C(C)(C)C(=O)N4)CC2)cc1,inconclusive: -1.78% [signal inhibitor],–
Oc1ccccc1-c1nc(/C=C/c2ccc(F)cc2)nn1-c1ccccc1,inconclusive: 6.74% [signal inhibitor],–

SMILES,IkBa stabilization activation,Potency
COc1cccc(/C=C/C(=O)Nc2ccc3nc(N4CCN(C)CC4)cc(C)c3c2)c1OC,inconclusive: 3.44% [signal inhibitor],–
CSc1nc(-c2ccco2)nn1S(=O)(=O)c1ccccc1,inactive: 2.37%,–
COc1cc(-c2nc3nc(C)cc(C)n3c2Nc2ccc(Cl)cc2)ccc1O,inactive: 7.74%,–
Cc1occc1C(=O)Nc1nccs1,inactive: -0.848%,–
COC(=O)c1cccc(-n2c(CCC(=O)O)ccc2-c2cccs2)c1,inconclusive: 5.6% [signal inhibitor],–
COc1ccc2[nH]c(=O)c(CN(Cc3cccs3)S(=O)(=O)c3cccc4nsnc34)cc2c1,inconclusive: 4.58% [signal inhibitor],–
O=C(c1cc2ccc3cccnc3c2[nH]1)N1CCN(c2ccccc2)CC1,inconclusive: -2.09% [signal inhibitor],–
COc1ccc(Cn2c(C(=O)O)c(CNCc3ccc(C)o3)c3ccc(C)cc32)cc1,inconclusive: 0.056% [signal inhibitor],–
CCOC(=O)Nc1ccc2c(c1)Nc1ccccc1S2,inconclusive: 1.89% [signal inhibitor],–
COc1ccc(NC(=O)c2cc(-c3ccc(C)o3)nc3ccccc23)cc1OC,inconclusive: 0.64% [signal inhibitor],–
CCc1ccccc1NC(=O)C1CCCN(C(=O)c2cnn(-c3ccccc3)c2-n2cccc2)C1 (stereo unspecified),inconclusive: 1.54% [signal inhibitor],–
c1csc(CN2CCN(Cc3cccs3)C2c2cccs2)c1,–,"inconclusive: 25.1 µM [rising, partial curve]"
CCOc1ccc(N2CC(NC(=O)c3ccc(S(=O)(=O)N4CCCCC4)cc3)CC2=O)cc1 (stereo unspecified),inconclusive: -0.492% [signal inhibitor],–
S=C(c1ccc(-c2ccccc2Cl)o1)N1CCOCC1,inactive: -3.84%,–
Cc1ccc(NC(=O)CSc2nc3ccccc3nc2N2CCOCC2)cc1,inconclusive: 7.1% [signal inhibitor],–
Cc1ccc(C(c2nnnn2Cc2cccs2)N2CCN(Cc3ccc4c(c3)OCO4)CC2)cc1 (stereo unspecified),inconclusive: 2.96% [signal inhibitor],–
COc1cc(NC(=O)CSc2ncccc2C(=O)OC(C)C)cc(OC)c1,inconclusive: -1.81% [signal inhibitor],–
CCN1C(C(=O)c2ccccc2)=C(OC(=O)c2ccccc2OC)c2ccccc2S1(=O)=O,inconclusive: 9.39% [signal inhibitor],–
Cc1cccc(-n2ncc3c(NC4CCCCC4)ncnc32)c1,inactive: 8.99%,–
CCOc1ccc(-c2nc(CSCC(=O)NCc3ccc(Cl)cc3)c(C)o2)cc1,inconclusive: 12.6% [signal inhibitor],–
CCN(CC)CCNC(=O)c1ccc2c(=O)n3nc(Nc4ccccc4OC)sc3nc2c1,inconclusive: -0.853% [signal inhibitor],–
COc1cccc(CNC(=O)C2CCN(c3nnc(-n4c(C)ccc4C)s3)CC2)c1OC,inactive: 2.11%,–

SMILES,IkBa stabilization activation,Potency
CCOC(=O)CSc1nc2c(c(=O)n(Cc3ccccc3Cl)c(=O)n2C)n1C,inconclusive: 4.73% [signal activator],–
CCCn1c(=O)c(C(=O)NCc2ccc(OC)c(OC)c2)c(O)c2ccccc21,inconclusive: 5.54% [signal inhibitor],–
CCn1c(SCC(=O)Nc2cccc(NC(=O)c3ccco3)c2)nnc1-c1cccs1,inconclusive: 5.15% [signal inhibitor],–
CCSc1nc2n(n1)C(c1ccc(Cl)cc1Cl)C(C(=O)Nc1ccccc1C)=C(C)N2 (stereo unspecified),inconclusive: -2.23% [signal inhibitor],–
CCCCOc1ccc(C(=O)N(Cc2ccc(N(C)C)cc2)Cc2ccco2)cc1,inconclusive: 0.724% [signal inhibitor],–
CC(C)(C)c1ccc(-c2nc(NC(=O)CSc3ncnc4sc5c(c34)CCCC5)ns2)cc1,inconclusive: 2.48% [signal inhibitor],–
O=C(c1cccc(F)c1)N1CCC[C@@]2(CCN(C(c3ccccc3)c3ccccc3)C2)C1,"inactive: 0.111% [at 11.4 µM, scaled: untreated 0%, proteasome inhibitor 100%]",–
Cc1ccc(-n2ncc3c(NCc4ccccc4)ncnc32)cc1Cl,inconclusive: -0.613% [signal inhibitor],–
COc1ccc(N2CC(NC(=O)/C=C\c3ccc4c(c3)OCO4)CC2=O)cc1OC (stereo unspecified),inconclusive: 0.345% [signal inhibitor],–
O=C(NCCc1csc(-c2cccnc2)n1)c1cccc(Cl)c1,inconclusive: 0.612% [signal inhibitor],–
O=C(Cn1cnc2ccccc2c1=O)NCCC(=O)Nc1ccc2c(c1)OCCO2,inactive: 2.87%,–
Cc1ccc2ncc(C(=O)c3ccc(C)c(C)c3)c(S(=O)(=O)c3ccc(F)cc3)c2c1,–,"inconclusive: 20 µM [signal inhibitor, partial curve]"
Cc1ccccc1Cn1ccc(NC(=O)c2cc3nc(-c4ccco4)cc(C(F)(F)F)n3n2)n1,inactive: 0.807%,–
CCOc1ccc(CC(=O)NCCc2sc3nc(-c4ccc(F)cc4)nn3c2C)cc1,inconclusive: -3.17% [signal inhibitor],–
O=C(c1ccc(COc2ccccc2Cl)o1)N1CCN(c2ccccc2)CC1,inconclusive: 1.26% [signal inhibitor],–
Cc1ccccc1Cn1c(SCc2ccc(C(=O)NC3CCCCC3)cc2)nc2ccncc21,inconclusive: 0.604% [signal inhibitor],–
CC(C)N(Cc1nc(-c2ccc(Cl)cc2)no1)C(=O)c1ccc(C(C)(C)C)cc1,inconclusive: -0.593% [signal inhibitor],–
COc1ccc(-c2cc(C(=O)N3CCOCC3)c3cc(C)ccc3n2)cc1,inactive: -3.5%,–
CC(C)Cc1cc(C(=O)NCc2cccs2)no1,–,"inconclusive: 15.8 µM [signal inhibitor, partial curve]"
Cc1cccc(NC(=O)CSc2nc3ccc(NC(=O)c4ccccc4)cc3s2)c1,inconclusive: 0.223% [signal inhibitor],–
CCOc1ccc(-c2cc3nc(C4CCN(C(=O)OC(C)(C)C)CC4)c(C(=O)Nc4cccc(CC)c4)cn3n2)cc1,inconclusive: 6.39% [signal inhibitor],–
CC(C)(C)OC(=O)N1CCC(c2c(C(=O)NCCN3CCc4ccccc4C3)cnn2-c2ccc(F)cc2)CC1,inconclusive: 2.26% [signal inhibitor],–
